From the antibiotic and cytotoxicity screens of Wong et al. (2023) come the findings set out here.

One assay concerns HSkMC. The assay is described as follows: cytotoxicity call (relative viability < 0.9). The note with it: 10 µM.
A further assay relates to HepG2. The assay is described as follows: cytotoxicity call (relative viability < 0.9). The note with it: 10 µM.
In another assay the test system is S. aureus RN4220. The assay is described as follows: growth inhibition call (relative growth <= 0.2). Particulars: 50 µM.

The structures appear in SMILES notation. The list shows a part of the results.

With `CC(C)NC(=O)Nc1ccc2c(c1)C(=O)N([C@H](C)CO)C[C@H](C)[C@H](CN(C)C(=O)Nc1ccccc1)OCCCC[C@@H](C)O2`, the cytotoxicity call with HSkMC and with HepG2 was “inactive” each time. The growth inhibition call in the assay on S. aureus RN4220 was “inactive”.
`Cc1ccc(CSc2ncc(C(F)(F)F)cc2Cl)cc1`: the cytotoxicity call with HSkMC and in the assay on HepG2 was “inactive” throughout. In addition, the growth inhibition call with S. aureus RN4220 is “inactive”.
Regarding `C[C@@H]1CN([C@@H](C)CO)C(=O)Cc2cc(NC(=O)Cn3cnnn3)ccc2O[C@H]1CN(C)Cc1ccc(Oc2ccccc2)cc1`, the cytotoxicity call in the assay with HSkMC and in the assay on HepG2 was “inactive” in each case. The growth inhibition call in the assay on S. aureus RN4220 was “inactive”.
Turning to `C[C@@H]1CN([C@H](C)CO)C(=O)c2cc(NC(=O)Cc3ccccc3)ccc2O[C@@H]1CN(C)Cc1ccc(C(F)(F)F)cc1`, the cytotoxicity call in the assay with HSkMC and in the assay with HepG2 was “inactive” each time. The growth inhibition call in the assay with S. aureus RN4220 is “inactive”.
In the case of `C[C@H](O)[C@H](O)[C@@H](O)[C@@H](O)/C=N/NC(=O)CCCCCC(=O)NO`, the cytotoxicity call in the assay with HSkMC and in the assay with HepG2 was “inactive” in each case. Also, the growth inhibition call in the assay on S. aureus RN4220 was “inactive”.
Turning to `C[C@@H]1CCCCO[C@@H](CN(C)C(=O)Cc2ccccc2)[C@H](C)CN([C@@H](C)CO)C(=O)c2cc(NC(=O)Nc3ccc(F)cc3)ccc2O1`, the cytotoxicity call in the assay with HSkMC and with HepG2 was “inactive” each time. In addition, the growth inhibition call in the assay on S. aureus RN4220 was “inactive”.
Take `Cc1ccc(S(=O)(=O)N(C)C[C@@H]2OCCCC[C@H](C)Oc3ccc(NC(=O)Nc4ccc(F)cc4)cc3C(=O)N([C@H](C)CO)C[C@@H]2C)cc1`: the cytotoxicity call in the assay with HSkMC and with HepG2 was “inactive” each time. In addition, in the assay on S. aureus RN4220, the growth inhibition call is “inactive”.
Take `C[C@@H]1CN([C@@H](C)CO)C(=O)c2cc(NS(=O)(=O)c3ccccc3)ccc2O[C@H]1CN(C)S(=O)(=O)c1ccc(F)cc1`: the cytotoxicity call with HSkMC and in the assay with HepG2 was “inactive” throughout. The growth inhibition call in the assay on S. aureus RN4220 is “inactive”.
For the compound `Cc1ccc(S(=O)(=O)Nc2cccc3c2O[C@@H](CN(C)Cc2ccc(C(F)(F)F)cc2)[C@H](C)CN([C@@H](C)CO)C3=O)cc1`, the cytotoxicity call in the assay on HSkMC and in the assay on HepG2 was “inactive” in each case. For the same compound, the growth inhibition call with S. aureus RN4220 was “inactive”.
On to `C[C@@H]1CN([C@@H](C)CO)S(=O)(=O)c2ccc(C#CCN(C)C)cc2O[C@@H]1CN(C)S(C)(=O)=O`, for which the cytotoxicity call with HSkMC and with HepG2 was “inactive” throughout. Moreover, the growth inhibition call with S. aureus RN4220 was “inactive”.
Turning to `C[C@H]1CN([C@@H](C)CO)C(=O)Cc2cc(NC(=O)Nc3ccc(C(F)(F)F)cc3)ccc2O[C@@H]1CN(C)CC1CCCCC1`, the cytotoxicity call in the assay on HSkMC is “active”. The cytotoxicity call with HepG2 was “inactive”. Besides, in the assay with S. aureus RN4220, the growth inhibition call was “inactive”.
On to `CC(=O)Nc1nnc(S(N)(=O)=O)s1`, for which the cytotoxicity call with HSkMC and with HepG2 was “inactive” throughout. In addition, the growth inhibition call in the assay on S. aureus RN4220 was “inactive”.
On to `CCS(=O)(=O)N1CC[C@]2(CC1)CN([C@H](CO)c1[nH]c3cc(ccc3c12)OC)C(=O)Cc1ccccn1`, for which the cytotoxicity call in the assay with HSkMC and with HepG2 was “inactive” throughout. In the assay on S. aureus RN4220, the growth inhibition call was “inactive”.
In the case of `Cc1noc(C)c1NC(=O)N(C)C[C@H]1OCCCC[C@H](C)Oc2ccc(NC(=O)C3CCCCC3)cc2C(=O)N([C@H](C)CO)C[C@@H]1C`, the cytotoxicity call in the assay with HSkMC and with HepG2 was “inactive” in each case. Moreover, the growth inhibition call in the assay on S. aureus RN4220 is “inactive”.
As to `C[C@H](CO)N1C[C@H](C)[C@H](CN(C)Cc2ccc(Cl)c(Cl)c2)OCc2ccccc2-c2c(n(C)c3ccccc23)C1=O`, the cytotoxicity call in the assay on HSkMC is “inactive”. In addition, the cytotoxicity call in the assay on HepG2 is “active”. In the assay on S. aureus RN4220, the growth inhibition call is “inactive”.
For `C[C@@H]1CN([C@@H](C)CO)C(=O)Cc2cc(NC(=O)CCN3CCOCC3)ccc2O[C@@H]1CN(C)C(=O)Nc1ccc(F)cc1`, the cytotoxicity call in the assay on HSkMC and in the assay with HepG2 was “inactive” throughout. The growth inhibition call in the assay with S. aureus RN4220 was “inactive”.
In the case of `C[C@H](CO)N1C[C@H](C)[C@@H](CN(C)Cc2ccc(Oc3ccccc3)cc2)Oc2ccc(NS(=O)(=O)c3ccc(F)cc3)cc2C1=O`, the cytotoxicity call with HSkMC and with HepG2 was “inactive” throughout. Moreover, the growth inhibition call in the assay on S. aureus RN4220 was “inactive”.
For the compound `C[C@@H]1CN([C@H](C)CO)C(=O)c2cc(NC(=O)Nc3ccc4c(c3)OCO4)ccc2O[C@@H]1CN(C)Cc1ccc(C(=O)Nc2ccccc2N)cc1`, the cytotoxicity call in the assay on HSkMC and in the assay on HepG2 was “inactive” each time. The growth inhibition call in the assay with S. aureus RN4220 was “inactive”.
As to `C[C@H](CO)N1C[C@H](C)[C@@H](CN(C)C(=O)Nc2ccc3c(c2)OCO3)OCCCC[C@H](C)Oc2ccc(NC(=O)c3ccccc3)cc2C1=O`, the cytotoxicity call in the assay on HSkMC and with HepG2 was “inactive” each time. For the same compound, in the assay with S. aureus RN4220, the growth inhibition call is “inactive”.
For `C[C@H]1CCCCO[C@H](CN(C)C(=O)c2ccccc2)[C@@H](C)CN([C@@H](C)CO)C(=O)c2cc(NC(=O)Nc3ccc(F)cc3)ccc2O1`, the cytotoxicity call with HSkMC and in the assay with HepG2 was “inactive” each time. Moreover, the growth inhibition call in the assay on S. aureus RN4220 is “inactive”.
On to `COCC(=O)Nc1ccc2c(c1)C(=O)N(C)[C@H]1CC[C@H](CC(=O)N3CCc4ccccc4C3)O[C@H]1CO2`, for which the cytotoxicity call with HSkMC was “inactive”. Also, in the assay with HepG2, the cytotoxicity call was “active”. Also, the growth inhibition call in the assay on S. aureus RN4220 is “inactive”.
For `Nc1ccc2oc3c(c2c1)CCCC3`, the cytotoxicity call with HSkMC and in the assay on HepG2 was “inactive” throughout. The growth inhibition call with S. aureus RN4220 is “inactive”.
With `CCCC(C(=O)OCCN(CC)CC)(c1ccccc1)c1ccccc1.Cl`, the cytotoxicity call in the assay on HSkMC is “inactive”. In addition, the cytotoxicity call in the assay on HepG2 was “active”. In the assay on S. aureus RN4220, the growth inhibition call was “inactive”.
Turning to `C[C@H]1CN([C@@H](C)CO)C(=O)c2cccc(NC(=O)Nc3cccc4ccccc34)c2O[C@@H]1CN(C)C(=O)Nc1ccc(F)cc1`, the cytotoxicity call in the assay with HSkMC and in the assay with HepG2 was “inactive” throughout. Besides, the growth inhibition call in the assay with S. aureus RN4220 was “inactive”.
Take `C[C@@H]1CN([C@H](C)CO)C(=O)Cc2cc(NC(=O)Nc3cccc4ccccc34)ccc2O[C@@H]1CN(C)Cc1ccc(Oc2ccccc2)cc1`: the cytotoxicity call in the assay with HSkMC was “inactive”. The cytotoxicity call with HepG2 was “active”. In addition, the growth inhibition call with S. aureus RN4220 is “inactive”.
Consider `C[C@@H]1CN([C@@H](C)CO)C(=O)c2cc(NS(=O)(=O)c3cccs3)ccc2O[C@@H](C)CCCCO[C@H]1CN(C)C(=O)Cc1ccccc1`, for which the cytotoxicity call in the assay on HSkMC (human skeletal muscle cells) and in the assay on HepG2 was “inactive” in each case. For the same compound, the growth inhibition call in the assay on S. aureus RN4220 is “inactive”.
On to `CCCCCC(=O)OC1(C(C)=O)CCC2C3CCC4=CC(=O)CCC4(C)C3CCC21C` (stereo unspecified), for which the cytotoxicity call in the assay with HSkMC and in the assay with HepG2 was “inactive” in each case. The growth inhibition call in the assay on S. aureus RN4220 was “inactive”.
